# Laboratory results taken from publication PMC6919601, “Identification of Plasmodium dipeptidyl aminopeptidase allosteric inhibitors by high throughput screening” (PLoS ONE, 2019).
# About 230 (0.21%) of roughly 110,000 compounds showed an effect of 50% or more. The list shows a part of the results.
# Molecular target: DPAP1 (Plasmodium falciparum, UniProt Q8IIJ9)
# Test: primary screen, percent inhibition; read by cleavage of a fluorogenic dipeptide substrate; higher = more effect of the substance
# Parameters: species or system P. falciparum D10 trophozoite lysates; single well
# 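Also: 30 min substrate incubation versus DMSO and 10 µM JCP410 controls.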
# DPAP1, sequence (Q8IIJ9 whole entry, looked up): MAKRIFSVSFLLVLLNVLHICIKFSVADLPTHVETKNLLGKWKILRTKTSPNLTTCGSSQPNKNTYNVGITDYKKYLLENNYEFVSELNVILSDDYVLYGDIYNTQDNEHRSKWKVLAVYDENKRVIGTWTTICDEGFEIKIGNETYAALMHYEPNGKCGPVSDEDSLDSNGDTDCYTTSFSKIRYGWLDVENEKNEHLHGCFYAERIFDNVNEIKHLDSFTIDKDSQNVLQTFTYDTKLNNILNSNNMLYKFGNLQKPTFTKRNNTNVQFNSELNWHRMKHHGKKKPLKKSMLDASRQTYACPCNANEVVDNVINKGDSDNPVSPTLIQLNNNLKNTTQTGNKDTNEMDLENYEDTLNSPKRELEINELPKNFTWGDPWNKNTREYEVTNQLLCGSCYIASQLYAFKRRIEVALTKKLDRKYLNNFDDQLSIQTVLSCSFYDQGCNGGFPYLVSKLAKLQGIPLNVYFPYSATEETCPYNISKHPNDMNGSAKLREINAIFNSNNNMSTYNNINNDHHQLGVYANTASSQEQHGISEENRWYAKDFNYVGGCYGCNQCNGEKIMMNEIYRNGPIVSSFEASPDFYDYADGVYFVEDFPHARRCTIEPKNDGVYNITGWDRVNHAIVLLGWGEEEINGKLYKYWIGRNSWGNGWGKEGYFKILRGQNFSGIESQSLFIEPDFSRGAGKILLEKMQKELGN
row,SMILES,% Inhibition @ 10 uM
1,COc1ccccc1NC(=O)CCCOc1ccc(Cl)cc1Cl,4.82%
2,COC1CCCCC1Nc1ccc2c(c1)CCC2 (centres unmarked),-5.59%
3,CC(=O)Nc1ccc(S(=O)(=O)N2CCN(C(=O)N3CCCCC3)CC2)cc1,2.44%
4,Cc1ccc(-n2ncc(C(=O)N3CCN(C)CC3)c2C2CCN(C(=O)OC(C)(C)C)CC2)cc1,-0.171%
5,C=CCc1ccccc1OCC(O)CN1CCN(Cc2ccc3c(c2)OCO3)CC1 (centres unmarked),17.1%
6,Cc1ccc2cc(CCNS(C)(=O)=O)c(O)nc2c1,-1%
7,Cc1ccc(-n2nc(C)c3c(C)c(CCC(=O)N4CCN(C(=O)c5ccco5)CC4)c(C)nc32)cc1C,-4.1%
8,CCOc1ccc(NS(=O)(=O)c2ccc(NC(=O)C3CC3)cc2)cc1,4.11%
9,CCNC(=O)/C(C#N)=C/c1c(Oc2ccc(C(C)(C)C)cc2)nc2ccccn2c1=O,6.78%
10,Cc1c(CCO)c(O)oc2nnc(-c3ccccc3)c1-2,-3.14%
11,CCN(CCO)Cc1csc2c(Cl)cccc12,-0.641%
12,CCCN1C/C(=C\c2cccc([N+](=O)[O-])c2)C2=NN(C(C)=O)C(c3cccc([N+](=O)[O-])c3)C2C1 (centres unmarked),2.94%
13,CCOC(=O)N1CCC(NCCc2ccc(Cl)cc2)CC1,-7.35%
14,O=C(NCC1CCCO1)c1cc(O)nc2ccc(Br)cc12 (centres unmarked),6.32%
15,Cc1ccc2[nH]c(C)c(CCNC(=O)c3ccc(C(=O)c4ccccc4)o3)c2c1,-2.63%
16,CCNc1oc(/C=C/c2cccc(OC)c2)nc1C#N,-0.808%
17,CCCCC/C(C)=C(\C#N)C(=O)OCC,-6.99%
18,CCN1CCC(N(Cc2ccco2)C(=O)NC23CC4CC(CC(C4)C2)C3)CC1,-8.86%
19,CCN(CC)CCCOC(=O)c1ccc(OC)c(O)c1,1.84%
20,Cc1ccc(CN(C(=O)COc2cccc(C)c2C)C2CCS(=O)(=O)C2)o1 (centres unmarked),-4.64%
21,CSc1nc2ccc(N3C(=O)C4CCCCC4C3=O)cc2s1 (centres unmarked),-1.78%
22,Cn1c(=O)n(C)c2c([N+](=O)[O-])nccc21,-2.63%
23,Clc1ccc(-n2nnnc2-c2ccccc2)cc1,-4.32%
24,Cc1ccc2nc3c(O)n(CC(=O)NCc4ccccc4Cl)ncc-3c2c1,-2.71%
25,COc1cccc(-c2cc(C(F)(F)F)n3ncc(C(=O)Nc4ccc(C#N)cc4)c3n2)c1,-4.49%
26,O=[N+]([O-])c1ccc(Cl)c(CN2CCN(c3cccc(C(F)(F)F)c3)CC2)c1,4.67%

row,SMILES,% Inhibition @ 10 uM
1,COc1ccccc1C(=O)Nc1ccc(C)cn1,-1.92%
2,COc1ccc(-c2cc(-c3ccc4ccccc4c3O)[nH]n2)cc1,-1.33%
3,Cc1cc(C)n(-c2ccc(O)nn2)n1,-0.828%
4,Cc1ccccc1CN(C)CCN(C)C,3.53%
5,COc1cc2c(cc1OC)/C(=C\c1ccccc1)C(=O)OC2,3.03%
6,NC(=O)c1nn(-c2ccccc2)nc1NC(=O)CN1CCOCC1,-2.19%
7,COc1cc(OC)cc(C(=O)Nc2c(C)cccc2C(C)C)c1,-1.11%
8,CC(C)(C)NCc1ccccc1OCc1cccs1,-4.7%
9,CCCN(CCC)CCNC(=O)C1CCN(C2=NS(=O)(=O)C(c3ccc(C)c(C)c3)=C2C)CC1,1.63%
10,CC(C)(C)c1ccc(OCC(O)CN2CCCC2)cc1 (centres unmarked),0.634%
11,O=C1C2CC=CCC2C(=O)N1c1ccccc1Cl (centres unmarked),-2.8%
12,COc1ccc(CN=C(N)N)cc1,-3.41%
13,CC(C)CNP(=S)(c1ccccc1)C(C)(C)C (centres unmarked),1.12%
14,C=CCN1C(=O)S/C(=C/c2ccc(N(C)C)c(Br)c2)C1=O,1.35%
15,COc1ccccc1-c1c(C)nn2c(NCCCN3CCCC3=O)cc(C)nc12,-3.7%
16,COCCN1C(=O)/C(=C\c2ccc(Cl)cc2)C(C(=O)OC)=C1C,1.81%
17,CCOc1ccc2cc(C(=O)NCc3ccccc3)c(=N)oc2c1,-1.26%
18,COc1cc(-c2nc3s/c(=C\C=C\c4ccccc4)c(=O)n3n2)cc(OC)c1OC,-4.85%
19,O=C(Nn1cnnc1)c1ccccc1Cl,4.1%
20,O=C(CC1SC(NCc2ccccc2)=NC1=O)Nc1ccccc1 (centres unmarked),-4.68%
21,CCOc1ccc(N2C(=O)CC(NC3CCCC3)C2=O)cc1 (centres unmarked),-3.03%
22,COc1ccc(NC(=O)CSc2ccccc2)cc1OC,-4.13%
23,COc1ccccc1CNS(=O)(=O)c1ccc(NC(C)=O)cc1,5.09%
24,Cc1cc(C)nc(NC2=NCCN2C(=O)Nc2ccc(Cl)c(Cl)c2)n1,-2.21%
25,O=C1CCNc2ccc(-c3ccccc3)cc21,-4.96%
26,O=C(O)c1ccccc1C(=O)Nc1cccc2c(NC(=O)c3ccccc3C(=O)O)cccc12,-5.51%

row,SMILES,% Inhibition @ 10 uM
1,CCCCN(C)C(=O)c1nc(-c2ccc(C)cc2)n2c1CCCCC2,-1.69%
2,CC1=C(C#N)C(=O)N(CC(C)O)C(=O)/C1=C/c1ccc(-c2cccc(Cl)c2Cl)o1 (centres unmarked),4.85%
3,Cc1cc(OCC(=O)N2CCCC2)ccc1Br,-1.5%
4,COc1ccc(-c2noc(CN(C(=O)COc3ccc(Br)cc3)C(C)C)n2)cc1,2.23%
5,CCN(Cc1ccccc1)Cc1csc(C)c1C,7.86%
6,CNC(=O)C1CC(=O)N(Cc2ccc(OC)cc2)/C(=N/c2ccc(Cl)cc2)S1 (centres unmarked),-3.04%
7,O=C(CNc1ccccc1)N1c2ccccc2Sc2ccccc21,2.42%
8,CC(=O)CC(C)(C)S(=O)(=O)c1ccc(Br)cc1,4.57%
9,CN1c2ccccc2N(C)C1c1cccs1,-7.34%
10,Cn1c(=O)c2c(nc(NCc3cccnc3)n2Cc2cccc3ccccc23)n(C)c1=O,3.06%
11,Cc1ccc(S(=O)(=O)Nc2ccccc2)cc1N,-4.35%
12,CC(=O)Nc1c2c(nn1-c1ccc(C)cc1)CS(=O)(=O)C2,0.566%
13,Cc1ccc(-n2c(C)cc(/C=C3/C(=N)N4C(=NC3=O)SN=C4S(C)(=O)=O)c2C)cc1Cl,6.59%
14,CC1CN(C(=O)c2cccs2)CCN1C(=O)c1cccs1 (centres unmarked),-2.37%
15,CC(C)(CC(=O)O)CC(=O)Nc1ccc(Cl)cc1Cl,3.69%
16,CCOC(=O)C1CCN(C2C3CC4CC(C3)CC2C4)CC1 (centres unmarked),4.75%
17,O=C(NCc1nc(-c2ccc(Cl)cc2)no1)C12CC3CC(CC(C3)C1)C2,-4.82%
18,CCCNC(=S)NC(c1ccccc1)(c1ccccc1)c1ccccc1,-0.415%
19,CCOc1ccc(/C=C2\CCC(C3CCCC3)C2=O)cc1 (centres unmarked),4.06%
20,COCCNC(=O)C1c2ccccc2C(=O)N2CCCCC12 (centres unmarked),1.91%
21,Cc1ccc(C(=O)CN2C(=O)S/C(=C\c3ccc(OCC(=O)O)cc3)C2=O)cc1,1.59%
22,Cc1cc(C)c(S(=O)(=O)Nc2ccccc2C)c(C)c1,-5.32%
23,COc1ccc(CN2CC(C)OC(C)C2)cc1O (centres unmarked),-9.96%
24,Cc1ccccc1OCC(=O)Nc1cccnc1Cl,-2.65%
25,CCc1ccc2nc(N3CCC(C(=O)N4CCC5(CC4)OCCO5)CC3)sc2c1,-5.51%
26,CCCNC(=O)C1CCN(C(=O)c2cnn(-c3ccccc3)c2-n2cccc2)CC1,3.4%

row,SMILES,% Inhibition @ 10 uM
1,Clc1cccc(OCCCN2CCOCC2)c1,-0.351%
2,Sc1nc(-c2ccccc2)nc2c1C1(CCCC1)Cc1ccccc1-2,-2.44%
3,COc1ccc(C2CC(=O)N3CN(CCC(C)C)CSC3=C2C#N)cc1OC (centres unmarked),46.8%
4,COc1ccc(/C=C2/C(=N)N3N=C(C(C)C)SC3=NC2=O)cc1OC,-2.87%
5,Cc1nnc(SCc2c(C)noc2C)nc1O,-7.04%
6,O=C(NCCc1ccsc1)NCc1noc2ccccc12,0.0147%
7,COc1ccc(Cl)cc1N(CC(=O)Nc1cccc(C)c1)S(C)(=O)=O,-0.185%
8,CN1CCN(Cc2ccc(Br)o2)CC1,-6.21%
9,Cc1cc(=O)n2nc(N(C)CC(=O)NCc3ccc4c(c3)OCO4)sc2n1,3%
10,CCc1ccc(C2=CC(c3ccc(OC)c(OC)c3OC)n3nnnc3N2)cc1 (centres unmarked),-3.37%
11,Cc1cccc(NC(=O)COc2ccc(Cl)cc2Cl)c1C,-5.11%
12,CCCN1CCN(C(=O)Cn2nc(Cc3cccnc3)c3ccccc3c2=O)CC1,3.59%
13,O=c1c2c3c(sc2[nH]c(=S)n1Cc1ccccc1)CCCC3,3.06%
14,O=C(NC1CCS(=O)(=O)C1)/C(NC(=O)c1ccccc1)=C(/Sc1ccc(Cl)cc1)c1ccccc1 (centres unmarked),-8.12%
15,COc1ccc(S(=O)(=O)Nc2ccc(C)c(C)c2)cc1,-0.0813%
16,COc1ccc(OC)c(NC(=O)c2ccccc2F)c1,4.55%
17,O=C1C(Sc2ccccc2)=C/C(=N/S(=O)(=O)c2cccs2)c2ccccc21,0.0289%
18,CCOc1ccc(C2=Nn3c(nnc3-c3ccccc3)SC2)cc1Cl,2.89%
19,CCN(CC)C(=O)C1CCCN(Cc2ccc(OC)cc2)C1 (centres unmarked),-0.127%
20,Cc1sc2nc(C)n(N)c(=O)c2c1C,-4.02%
21,Nc1sc2c(c1C(=O)Nc1ccc(Br)cc1)CCCC2,22.8%
22,CCc1ccccc1NS(=O)(=O)c1ccc(Cl)cc1,-8.76%
23,CCOc1ccc2nc(NC(=O)COc3ccc(Br)cc3)sc2c1,0.0265%
24,CCN(C(=O)CCC(=O)N(CC)c1ccccc1)c1ccccc1,-7.84%
25,Cc1cc(-c2ccc(S(=O)(=O)Nc3cccc(C)n3)cc2)on1,-5.92%
26,CCN1CCN(C(=O)c2cc3c(Cl)nc4ccc(C)cc4c3s2)CC1,-7.13%
